{"source": "PubChem BioAssay (Tox21)", "key": {"[1]": {"assay": "A CellTox Green Cytotoxicity Assay to monitor cytotoxicity in HEK293 cells - 32 hour (AID 1224881); further: nearly all actives have a fitted effect of over 40% in size; further: potency means the concentration at half of the fitted maximal effect; on cytotoxicity increase: on the % scale 0 is the no-effect control and ±100 the full control effect", "procedure,_shortened": "(§1)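 Fluorescence intensity, read at 0, 8, 16, 24, 32 and 40 h of compound treatment, reflected dye binding to DNA of dead HEK293 cells; compounds (23 nL, DMSO) were added 5 h after plating cells with reagent.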"}, "[2]": {"assay": "A CellTox Green Cytotoxicity Assay to monitor cytotoxicity in HepG2 cells - 32 hour (AID 1224883)", "procedure,_shortened": "(§2)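 Using 1536-well format, dye-containing HepG2 suspension was seeded, allowed 5 h at 37 C/5% CO2, dosed by pintool with compounds, positive and negative controls, and imaged for fluorescence across 40 h.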"}, "[3]": {"assay": "A CellTox Green Cytotoxicity Assay to monitor cytotoxicity in HEK293 cells - 8 hour (AID 1224884)", "procedure,_shortened": "as §1"}, "[4]": {"assay": "A CellTox Green Cytotoxicity Assay to monitor cytotoxicity in HEK293 cells - 16 hour (AID 1224888)", "procedure,_shortened": "as §1"}, "[5]": {"assay": "qHTS assay to identify small molecule phospholipidosis (PLD) inducers (AID 1259344; active means well fitted curve in the direction sought with a large enough effect; inconclusive means small, poorly fitted or top-dose-only effect, or another doubt; inactive means no such curve, though single readings can be large; an effect the other way counts as inactive or inconclusive)", "conditions": "HepG2 phospholipidosis, LipidTOX Red imaging, 24 h; PLD induction: at 38.3 µM (top of the series) unless noted", "procedure,_shortened": "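HepG2 cells, 900/well, treated with compound plus LipidTOX Red for 24 h at 37 C; amiodarone positive and DMSO negative controls. Fixed with paraformaldehyde/Hoechst, then high-content imaging scored LipidTOX pit count and integrated intensity per well and per cell.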"}, "[6]": {"assay": "qHTS RealTime-Glo MT Cell Viability Assay in HepG2 cells - 16 hour (AID 1224885)", "procedure,_shortened": "(§3)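 HepG2 suspension premixed with RealTime-Glo reagents is plated at 600 cells per well and left 5 h at 37 C/5% CO2. Compounds in DMSO then go in, and bioluminescence reflecting viable cell number is recorded over 40 h.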"}, "[7]": {"assay": "qHTS RealTime-Glo MT Cell Viability Assay in HEK293 cells - 24 hour (AID 1224886)", "procedure,_shortened": "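Reads taken at 0, 8, 16, 24, 32 and 40 h from the same wells. HEK293 cells (600/well) carried RealTime-Glo reagents from seeding, with compound added after a 5 h settle at 37 C.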"}, "[8]": {"assay": "qHTS RealTime-Glo MT Cell Viability Assay in HEK293 cells - 8 hour (AID 1224887)", "procedure,_shortened": "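Viable HEK293 cells reduce a cell-permeant prosubstrate; the product diffuses out and is consumed by NanoLuc in the medium to give light. Compounds went in after a 5 h incubation and plates were read over the treatment course.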"}, "[9]": {"assay": "qHTS assay to identify small molecule HDAC inhibitors (AID 1259364)", "procedure,_shortened": "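Read-out: luminescence of HDAC-Glo I/II reagent, 30 min RT, reflecting class I/II deacetylase activity in whole HCT-116 cells pre-exposed 2 h to DMSO-dissolved compounds.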"}, "[10]": {"assay": "qHTS RealTime-Glo MT Cell Viability Assay in HepG2 cells - 0 hour (AID 1224889)", "procedure,_shortened": "as §3"}, "[11]": {"assay": "qHTS assay to identify small molecule agonists of the sonic hedgehog signaling (Shh) pathway - cell viability counter screen (AID 1259366)", "procedure,_shortened": "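NIH/3T3-derived 3T3 Gli1-Luc cells (stable Gli1-responsive firefly luciferase reporter) were seeded, rested 4 hr at 37 C/5% CO2, then exposed to compounds in DMSO for 24 hr; viability was read by CellTiter-Fluor fluorescence in the same wells.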"}, "[12]": {"assay": "qHTS assay to identify small molecule antagonists of the sonic hedgehog signaling (Shh) pathway - cell viability counter screen (AID 1259367)", "procedure,_shortened": "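NIH/3T3-derived Gli1-Luc reporter cells, 2,000/well, plated 4 hr before compound addition, then stimulated with conditioned medium for 24 hr at 37C. Viability measured in the same wells by CellTiter-Fluor fluorescence, reagent added at 23 hr for 1 hr.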"}, "[13]": {"assay": "A CellTox Green Cytotoxicity Assay to monitor cytotoxicity in HepG2 cells - 8 hour (AID 1224890)", "procedure,_shortened": "as §2"}}, "note": "Values joined by “and” are separate entries in the source; they are usually repeats but may differ in a detail not shown here. Identical values can stand only once. The shares of active, inactive and inconclusive entries below differ from those in the screen. For some of these results: Potencies of inconclusive entries are doubtful fits and often do not repeat. Active and inactive are the calls of the source. Unless noted, the call rests on the fitted dose curve; in most records, active means well fitted curve in the direction sought with a large enough effect in the repeat runs; inconclusive means weak or mixed curves; inactive means no such curve, though single readings can be large; an effect the other way counts as inactive or inconclusive. Tags describe the fitted curve by direction and shape. Wherever PLD induction is given: on the % scale 0 is the no-effect control and ±100 the full control effect.", "data": [{"compound": "CCCCCC/C(C=O)=C\\c1ccccc1", "values": [{"measurement": "Potency", "setting": "[1]", "value": "inconclusive: 49.5 µM [activator, single point]"}, {"measurement": "Potency", "setting": "[2]", "value": "inconclusive: 0.124 µM [activator, partial curve, poor fit]"}, {"measurement": "Potency", "setting": "[3]", "value": "inconclusive: 62.3 µM [activator, single point]"}]}, {"compound": "CCCCCCCCCCCc1ccccc1", "values": [{"measurement": "Potency", "setting": "[1]", "value": "inactive"}]}, {"compound": "NC(=O)Nc1ccccc1", "values": [{"measurement": "Potency", "setting": "[1]", "value": "inactive"}]}, {"compound": "Cc1cncc(C)c1", "values": [{"measurement": "Potency", "setting": "[1]", "value": "inconclusive: 54.9 µM [activator, single point]"}, {"measurement": "Potency", "setting": "[2]", "value": "inactive"}, {"measurement": "Potency", "setting": "[4]", "value": "inconclusive: 61.6 µM [activator, partial curve, poor fit]"}]}, {"compound": "Cn1ccc2cc3c(cc21)CCN3C(=O)Nc1cccnc1", "values": [{"measurement": "cytotoxicity increase", "setting": "[1]", "value": "inactive: 1.72% [at 15.8 µM]"}, {"measurement": "cytotoxicity increase", "setting": "[2]", "value": "inactive: -9.84% [at 15.8 µM]"}, {"measurement": "Potency", "setting": "[5]", "value": "inactive"}]}, {"compound": "O=C(c1ccccc1)C1(O)CCCCC1", "values": [{"measurement": "Potency", "setting": "[1]", "value": "inconclusive: 61.6 µM [activator, partial curve, poor fit]"}, {"measurement": "Potency", "setting": "[3]", "value": "inconclusive: 54.9 µM [activator, single point]"}]}, {"compound": "NCCCCCC(=O)O", "values": [{"measurement": "Potency", "setting": "[1]", "value": "inactive"}, {"measurement": "Potency", "setting": "[6]", "value": "inactive"}]}, {"compound": "COc1ccc2nc(NC(=O)Nc3ccccc3)sc2c1", "values": [{"measurement": "Potency", "setting": "[1]", "value": "inconclusive: 33.8 µM [activator, partial curve, poor fit]"}, {"measurement": "Potency", "setting": "[2]", "value": "inconclusive: 6.01 µM [activator, partial curve]"}, {"measurement": "Potency", "setting": "[7]", "value": "active: 4.77 µM"}, {"measurement": "Potency", "setting": "[8]", "value": "inconclusive: 4.77 µM [cytotoxic, full curve]"}, {"measurement": "Potency", "setting": "[9]", "value": "active: 3.35 µM"}]}, {"compound": "CC(C)(Oc1ccc(C2CC2(Cl)Cl)cc1)C(=O)O", "note": "(stereo not given)", "values": [{"measurement": "Potency", "setting": "[1]", "value": "inconclusive: 59.2 µM [activator, single point]"}, {"measurement": "Potency", "setting": "[3]", "value": "inconclusive: 59.2 µM [activator, single point]"}, {"measurement": "Potency", "setting": "[7]", "value": "inconclusive: 21.9 µM [cytotoxic, partial curve]"}, {"measurement": "Potency", "setting": "[4]", "value": "inconclusive: 59.2 µM [activator, single point]"}]}, {"compound": "O=c1c2ccccc2oc2ccccc12", "values": [{"measurement": "Potency", "setting": "[1]", "value": "inconclusive: 0.174 µM [activator, partial curve, poor fit]"}, {"measurement": "Potency", "setting": "[2]", "value": "inactive"}, {"measurement": "Potency", "setting": "[8]", "value": "inconclusive: 43.6 µM [cytotoxic, partial curve]"}]}, {"compound": "COc1ccc(C(=O)Nc2ccccc2)cc1[N+](=O)[O-]", "values": [{"measurement": "Potency", "setting": "[1]", "value": "inconclusive: 62.1 µM [activator, single point]"}, {"measurement": "Potency", "setting": "[6]", "value": "inactive"}, {"measurement": "Potency", "setting": "[8]", "value": "active: 24.7 µM"}]}, {"compound": "C/C=C/C=C/CCCCCCCO", "values": [{"measurement": "Potency", "setting": "[1]", "value": "inconclusive: 54.9 µM [activator, single point]"}, {"measurement": "Potency", "setting": "[6]", "value": "inactive"}, {"measurement": "Potency", "setting": "[7]", "value": "inactive"}, {"measurement": "Potency", "setting": "[8]", "value": "inconclusive: 49 µM [cytotoxic, partial curve, poor fit]"}, {"measurement": "Potency", "setting": "[10]", "value": "active: 13.8 µM"}, {"measurement": "Potency", "setting": "[11]", "value": "inconclusive: 77 µM [cytotoxic, partial curve, poor fit]"}, {"measurement": "Potency", "setting": "[12]", "value": "inconclusive: 61.1 µM [cytotoxic, single point]"}]}, {"compound": "OC[C@H]1O[C@@](CO)(O[C@H]2O[C@H](CO)[C@@H](O)[C@H](O)[C@H]2O)[C@@H](O)[C@@H]1O", "values": [{"measurement": "Potency", "setting": "[1]", "value": "inconclusive: 21.9 µM [activator, single point]"}, {"measurement": "Potency", "setting": "[3]", "value": "inconclusive: 21.9 µM [activator, single point]"}, {"measurement": "Potency", "setting": "[4]", "value": "inconclusive: 21.9 µM [activator, single point]"}]}, {"compound": "O=C(O)[C@H](O)[C@@H](O)[C@H](O)[C@H](O)CO", "values": [{"measurement": "Potency", "setting": "[1]", "value": "inconclusive: 24.5 µM [activator, single point] and inconclusive: 2.96 µM [activator, single point]"}, {"measurement": "Potency", "setting": "[3]", "value": "inconclusive: 24.5 µM [activator, single point] and inconclusive: 2.96 µM [activator, single point]"}, {"measurement": "Potency", "setting": "[4]", "value": "inconclusive: 24.5 µM [activator, single point] and inconclusive: 2.96 µM [activator, single point]"}]}, {"compound": "CCCCCOC(=O)c1ccc(O)cc1", "values": [{"measurement": "Potency", "setting": "[1]", "value": "active: 49.6 µM"}, {"measurement": "Potency", "setting": "[2]", "value": "inconclusive: 55.6 µM [activator, single point]"}, {"measurement": "Potency", "setting": "[4]", "value": "inconclusive: 49.6 µM [activator, partial curve]"}, {"measurement": "Potency", "setting": "[12]", "value": "inconclusive: 61.9 µM [cytotoxic, single point]"}]}, {"compound": "CCCOC(C(=O)OC1CCN(C)CC1)(c1ccccc1)c1ccccc1", "values": [{"measurement": "Potency", "setting": "[1]", "value": "inconclusive: 26.8 µM [activator, single point]"}, {"measurement": "Potency", "setting": "[2]", "value": "active: 21.3 µM"}, {"measurement": "Potency", "setting": "[7]", "value": "inconclusive: 19 µM [cytotoxic, partial curve]"}, {"measurement": "Potency", "setting": "[4]", "value": "inconclusive: 26.8 µM [activator, single point]"}, {"measurement": "Potency", "setting": "[10]", "value": "inconclusive: 16.9 µM [rising, partial curve]"}, {"measurement": "Potency", "setting": "[13]", "value": "inactive"}, {"measurement": "Potency", "setting": "[5]", "value": "inconclusive: 17.8 µM [activator, single point]"}, {"measurement": "Potency", "setting": "[12]", "value": "inconclusive: 10.6 µM [cytotoxic, partial curve]"}]}]}
